# From PubChem BioAssay (NCATS)
# Several values for one entry are separate records, joined by “and”; a condition that tells them apart may be missing. Identical values can stand only once. The inconclusive results got no clear call from the source; some entries with a clear call stand among them for comparison. For some assays here: Where the call is inconclusive, the potency comes from a doubtful curve fit. Activity calls are given as the source filed them. Calls follow the shape of the dose curve; as a rule, active = well fitted curve in the direction sought with a large enough effect; inconclusive = small, poorly fitted or top-dose-only effect, or another doubt; inactive = no such curve, though single readings can be large; an effect the other way counts as inactive or inconclusive.
# What was measured:
# [1] = qHTS to identify inhibitors of the type 1 interferon - major histocompatibility complex class I in skeletal muscle: primary screen against the NCATS LOPAC collection (AID 1347405);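 also: lytic HiBiT luminescence reporting HLA-B protein level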; also: potency is read from the fitted curve at half-maximal effect; as to activity change, negative = inhibition: % is scaled to controls: 0 for no effect and ±100 for the full control effect
# How it was run: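 Luminescence from HiBiT fused to endogenous HLA-B in CRISPR-engineered human myoblasts served as the read-out. Cells received 4.0 ng/ml IFN-beta plus compound (seven concentrations, 1:4.3 steps, highest 46 uM final) for 24 hrs before lytic detection.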
# [2] = qHTS to identify inhibitors of the type 1 interferon - major histocompatibility complex class I in skeletal muscle: primary screen against the NCATS Pharmaceutical Collection (AID 1347407);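 also: luminescence of HiBiT knocked into endogenous HLA-B as interferon-induced MHC class I level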; also: potency is read from the fitted curve at half-maximal effect; as to activity change, negative = inhibition: % is scaled to controls: 0 for no effect and ±100 for the full control effect
# How it was run: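 HLA-B HiBiT myoblasts, dexamethasone-free growth medium + 4 ng/ml IFN-b; compounds pinned 1 h after seeding, […] from 46 uM; 24 h, 37 C, 5% CO2; lytic HiBiT detection, 10 min RT, luminescence.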
# [3] = target: Protein phosphatase 1D (Homo sapiens) (UniProt O15297); assay: RapidFire Mass Spectrometry qHTS Assay for Modulators of WT P53-Induced Phosphatase 1 (WIP1) (AID 1347424);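 also: amount of dephosphorylated VEPPL-S-QETFS peptide product formed by WIP1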; also: potency is read from the fitted curve at half-maximal effect;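 as to activity change, negative = inhibition: plate controls were DMSO wells for no effect and GSK830371 inhibitor control at 10 µM for full effect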
# UniProt O15297, sequence (O15297 whole entry, looked up): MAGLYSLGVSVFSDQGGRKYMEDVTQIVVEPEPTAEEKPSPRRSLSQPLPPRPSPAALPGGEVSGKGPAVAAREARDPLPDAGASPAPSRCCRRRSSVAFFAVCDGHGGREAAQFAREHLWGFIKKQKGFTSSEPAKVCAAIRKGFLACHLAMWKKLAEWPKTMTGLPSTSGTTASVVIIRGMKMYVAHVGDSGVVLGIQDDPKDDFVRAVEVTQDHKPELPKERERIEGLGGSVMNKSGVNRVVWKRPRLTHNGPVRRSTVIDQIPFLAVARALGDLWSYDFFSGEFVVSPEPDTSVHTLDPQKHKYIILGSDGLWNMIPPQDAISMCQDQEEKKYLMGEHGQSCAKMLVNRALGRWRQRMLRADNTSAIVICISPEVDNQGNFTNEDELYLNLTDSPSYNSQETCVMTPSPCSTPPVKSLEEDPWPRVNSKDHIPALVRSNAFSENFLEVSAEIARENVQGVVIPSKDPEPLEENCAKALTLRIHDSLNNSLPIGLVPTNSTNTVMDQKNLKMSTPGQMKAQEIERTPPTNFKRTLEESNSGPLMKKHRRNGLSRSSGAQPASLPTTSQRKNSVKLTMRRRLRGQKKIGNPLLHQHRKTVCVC
# How it was run: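 10 nM WIP1 preincubated with compounds 1 hr at room temperature in pH 7.5 Tris buffer with 30 mM MgCl2, 1 mM TCEP; 2 uM VEPPL-pS-QETFS phosphopeptide for 5 min, formic acid quench; dephosphorylated product quantified by RapidFire MS against labelled standard.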
# [4] = target: Protein phosphatase 1D (Homo sapiens) (UniProt O15297); assay: Rhodamine-PBP qHTS Assay for Modulators of WT P53-Induced Phosphatase 1 (WIP1) (AID 1347425); also: potency is read from the fitted curve at half-maximal effect; as to activity change, negative = inhibition: % of control where 0% means no effect
# How it was run: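 WIP1 (5 nM final) was preincubated with compound for 1 hour at room temperature. It then dephosphorylated 10 uM VEPPL-pS-QETFS peptide in Tris-HCl pH 7.5 with 30 mM MgCl2. Released Pi was detected by 10 uM Rh-PBP fluorescence (ex 525/em 598 nm) read at 1-min intervals for 11 min, as delta f1 - f0.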
# [5] = qHTS to identify inhibitors of the type 1 interferon - major histocompatibility complex class I in skeletal muscle: primary screen against the NCATS Mechanism Interrogation Plate v5.0 (MIPE) Libary (AID 1347411); details: iHSKM cells + IFN-b, HiBiT-tagged MHC-I luminescence, 24 h; activity change, negative = inhibition: at 45.8 µM (top of the series); also: nearly all actives have a fitted effect of over 65% in size; also: potency is read from the fitted curve at half-maximal effect;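 as to activity change, negative = inhibition: plate controls were vehicle for no effect and reference inhibitor for full effect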
# How it was run: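 Luminescence from HiBiT-tagged endogenous HLA-B*08:01 served as the MHC class I read-out. CRISPR-engineered C25cl48 human myoblasts received 4.0 ng/ml IFN-beta plus compound for 24 hrs, with an 11-point, 1:3 series topping at 46 uM final.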
# [6] = Primary qHTS for inhibitors of La Crosse Virus (LACV) - induced cell death in SH-SY5Y cells (AID 1508616); also: potency is read from the fitted curve at half-maximal effect;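 as to activity change: top concentration of the series differs between compounds; 0% = infected DMSO wells and 100% = uninfected DMSO wells; higher means more rescue of cells from virus-induced death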
# How it was run: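 Protection against LACV-induced cell death is scored in SH-SY5Y cells exposed to compounds and virus (0.01 MOI) for 6 days. Data normalized to virus-infected DMSO wells and virus-free DMSO wells.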
# [7] = target: Single-stranded DNA cytosine deaminase (Homo sapiens) (UniProt Q9GZX7); assay: Validation qHTS assay for inhibitors of Activation Induced Cytidine Deaminase (AID): AID signal (AID 1347429); details: Recombinant AID, FRET ssDNA deamination with UDG, fluorescence; at 115 µM (top of the series); also: % is scaled to controls: 0 for no effect and ±100 for the full control effect
# UniProt Q9GZX7, sequence (Q9GZX7 whole entry, looked up): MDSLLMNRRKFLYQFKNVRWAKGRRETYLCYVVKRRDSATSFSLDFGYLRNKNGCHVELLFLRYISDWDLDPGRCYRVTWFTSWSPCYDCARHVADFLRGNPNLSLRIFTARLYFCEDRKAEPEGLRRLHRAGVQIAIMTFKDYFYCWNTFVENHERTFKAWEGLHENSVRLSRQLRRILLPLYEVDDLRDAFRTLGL
# How it was run: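 Fluorescence at 540 nm excitation and 590 nm emission reports ssDNA cytosine deamination by AID, with UDG in the same well. Compound-treated reactions ran 4 hr at room temperature with DJC20/DJC23 substrate, followed by 30 min NaOH treatment.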
# [8] = Validation qHTS assay for inhibitors of Activation Induced Cytidine Deaminase (AID): UDG Counterscreen signal (AID 1347427); details: biochemical UDG counterscreen, fluorescence signal; also: potency is read from the fitted curve at half-maximal effect
# How it was run: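 Counterscreen read of UDG activity (2 U/mL, 4/3x) in the FRET deamination format with AID (1 uM, 4/3x), DJC20/DJC23 substrates (250 nM, 4x), 4 h at room temperature. NaOH stop, fluorescence at 560 ex/665 em.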
# [9] = target: Calcium and integrin-binding protein 1 (Homo sapiens) (UniProt Q99828); assay: Validation qHTS for Identification of Calcium Integrin Binding protein 1 (CIB1) Competitor (AID 1508618); also: potency is read from the fitted curve at half-maximal effect; as to activity change, negative = inhibition: % is scaled to controls: 0 for no effect and ±100 for the full control effect
# UniProt Q99828, sequence (Q99828 whole entry, looked up): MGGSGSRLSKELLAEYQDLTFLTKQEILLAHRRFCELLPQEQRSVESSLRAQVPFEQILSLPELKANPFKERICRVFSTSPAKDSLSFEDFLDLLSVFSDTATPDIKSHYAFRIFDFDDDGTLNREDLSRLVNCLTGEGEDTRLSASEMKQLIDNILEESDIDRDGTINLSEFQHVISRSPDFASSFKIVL
# How it was run: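 Fluorescence polarization with 1 uM CIB1-GST and 100 nM FITC-alphaIIb peptide in HEPES pH 7.4, NaCl, 5 mM CaCl2, Tween20. Compounds at up to 114 uM final, preincubated with protein 15 min; read after 15 min more at RT.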
# [10] = target: Calcium and integrin-binding protein 1 (Homo sapiens) (UniProt Q99828); assay: Confirmatory qHTS for Identification of Calcium Integrin Binding Protein 1 (CIB1) Competitor (AID 1508617); also: nearly all actives have a fitted effect of over 65% in size; also: potency is read from the fitted curve at half-maximal effect
# How it was run: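 FP competition: CIB1-GST (1 uM final) in 5 mM HEPES pH 7.4, 125 mM NaCl, 5 mM CaCl2, 0.01% Tween20 preincubated 15 min RT with compounds (up to 114 uM), then FITC-alphaIIb peptide (100 nM), 15 min RT; Ex 480/Em 540.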
# Tags tell the direction and shape of the fitted curve.
compound,measurement,setting,value
CC1COc2c(N3CCN(C)CC3)c(F)cc3c(=O)c(C(=O)O)cn1c23 (configuration not stated),Potency,[1],inactive
Oc1ccc(-c2nc(-c3ccc(F)cc3)c(-c3ccncc3)[nH]2)cc1,Potency,[1],"inconclusive: 11.2 µM [inhibitor, partial curve]"
COc1cc(C(C)=O)ccc1OCCCN1CCC(c2noc3cc(F)ccc23)CC1,Potency,[2],"inconclusive: 13.3 µM [inhibitor, partial curve, poor fit]"
Cn1cnc2c(F)c(Nc3ccc(Br)cc3Cl)c(C(=O)NOCCO)cc21,Potency,[2],"inconclusive: 3.74 µM [inhibitor, partial curve, poor fit]"
CC1(C)CCC(C)(C)c2cc(NC(=O)c3ccc(C(=O)O)cc3)ccc21,Potency,[2],"inconclusive: 6.64 µM [inhibitor, full curve, poor fit]"
same,Potency,[3],"inconclusive: 31.6 µM [inhibitor, single point]"
same,Potency,[4],"inconclusive: 22.4 µM [inhibitor, partial curve, poor fit]"
CCc1nc(N)nc(N)c1-c1ccc(Cl)cc1,Potency,[2],"inconclusive: 33.3 µM [inhibitor, single point]"
O=c1cc(O)c(Cl)c[nH]1,Potency,[5],inactive
COC(=O)C1=C(C)NC(C)=C(C(=O)OCCCN2CCC(c3ccccc3)(c3ccccc3)CC2)C1c1cccc([N+](=O)[O-])c1 (configuration not stated),Potency,[2],"inconclusive: 14.9 µM [inhibitor, partial curve, poor fit]"
same,Potency,[5],"inconclusive: 9.3 µM [inhibitor, partial curve, poor fit]"
Cc1cccc(Nc2ccncc2S(=O)(=O)NC(=O)NC(C)C)c1,Potency,[2],"inconclusive: 33.3 µM [inhibitor, single point]"
same,Potency,[3],inactive
Cc1cccc(-c2[nH]ncc2-c2ccc3ncccc3n2)n1,Potency,[1],"inconclusive: 14.1 µM [inhibitor, partial curve]"
CN1CCC(=C2c3ccccc3C=Cc3ccccc32)CC1,Potency,[2],inactive
same,Potency,[5],inactive
same,Potency,[4],inactive
same,Potency,[6],"inconclusive: 2 µM [inhibitor, single point]"
Nc1nc(OCc2ccccc2)c2[nH]cnc2n1,Potency,[1],"inconclusive: 35.5 µM [inhibitor, single point]"
CC(C)=CC[C@@H](O)C1=CC(=O)c2c(O)ccc(O)c2C1=O,Potency,[5],"inconclusive: 37 µM [inhibitor, single point]"
Cc1ccc(C(=O)c2cc(O)c(O)c([N+](=O)[O-])c2)cc1,Potency,[5],"inconclusive: 29.4 µM [inhibitor, partial curve, poor fit]"
same,Potency,[6],inactive
NCCS(=O)(=O)O,Potency,[5],inactive
same,"activity change, negative = inhibition",[7],inactive: 5.56%
Cc1cc(C2CCCCC2)n(O)c(=O)c1,Potency,[5],"inconclusive: 20.8 µM [inhibitor, partial curve, poor fit]"
same,Potency,[6],"inconclusive: 3.16 µM [inhibitor, single point]"
CCOC(=O)Nc1ccc(NCc2ccc(F)cc2)nc1N,Potency,[5],inactive
same,Potency,[4],"inconclusive: 22.4 µM [inhibitor, single point]"
same,Potency,[8],"inconclusive: 28.2 µM [inhibitor, partial curve, poor fit]"
same,Potency,[9],"inconclusive: 39.8 µM [inhibitor, partial curve, poor fit]"
CCn1cc(C(=O)O)c(=O)c2cc(F)c(N3CCNCC3)nc21,Potency,[4],inactive
CCC1=C(C)CN(C(=O)NCCc2ccc(S(=O)(=O)NC(=O)NC3CCC(C)CC3)cc2)C1=O (configuration not stated),Potency,[4],"inconclusive: 31.6 µM [inhibitor, partial curve, poor fit]"
CN1C2CCC1CC(OC(=O)C(CO)c1ccccc1)C2 (configuration not stated),Potency,[9],inactive
CCCNCC(O)COc1ccccc1C(=O)CCc1ccccc1 (configuration not stated),Potency,[6],"inconclusive: 6.31 µM [inhibitor, single point]"
CCN(CCO)CCCC(C)Nc1ccnc2cc(Cl)ccc12 (configuration not stated),activity change,[6],inactive: -0.436% [at 0.431 µM]
C[C@@H](CN1CC(=O)NC(=O)C1)N1CC(=O)NC(=O)C1,Potency,[6],"inconclusive: 1.41 µM [inhibitor, single point]"
Oc1ccc(-c2ccc(-c3cc(Nc4cccc(CNC5CC5)c4)n[nH]3)cc2)c(O)c1,Potency,[5],active: 5.87 µM
Cc1c(C)n(Cc2ccc(-c3ccccc3C(=O)O)cc2)c2ccc(C(=O)N[C@@H](C)c3ccc([N+](=O)[O-])cc3)cc12,Potency,[10],"inconclusive: 25.1 µM [inhibitor, full curve] and inconclusive: 22.4 µM [inhibitor, full curve]"
Cc1nc(C(=O)NCC(=O)O)c(O)c2ccc(Oc3ccccc3)cc12,Potency,[10],inactive
Cc1ncc([N+](=O)[O-])n1CC(C)O (configuration not stated),Potency,[4],inactive
CCn1cc(C(=O)O)c(=O)c2ccc(C)nc21,Potency,[9],"inconclusive: 8.91 µM [inhibitor, full curve, poor fit]"
Cc1ccc(N(CC2=NCCN2)c2cccc(O)c2)cc1,Potency,[5],inactive
same,Potency,[4],inactive
CN(C)CCOC(c1ccccc1)c1ccccc1,Potency,[5],inactive
same,Potency,[6],"inconclusive: 3.16 µM [inhibitor, single point]"
same,Potency,[9],inactive
O=C(O)C1=NC(C(=O)O)CC(C=CN2c3cc(O)c(OC4OC(CO)C(O)C(O)C4O)cc3CC2C(=O)O)=C1 (configuration not stated),Potency,[10],"inconclusive: 50.1 µM [inhibitor, partial curve]"
